Source: the supplement of paper PMC8728848
The list shows a part of the results.

Assays:
Test in all cases: glycan array binding signal (z-score within array); higher = stronger binding
Details in all cases: glycan notation: IUPAC condensed, linker removed
[1] = target: Fuc(a1-2)Gal
Method in brief: (§1)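 Glycan array data were curated from 3228 arrays in the Consortium for Functional Glycomics database and kept only where the protein sequence was available. Glycan names were converted to IUPAC-condensed notation, and columns mapping to the same glycan were averaged. The binding signal is a within-array Z-score, averaged across arrays of the same protein sequence at different concentrations or buffers and across linkers. Negative Z-scores can be read as non-binding.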

[2] = target: Fuc(a1-2)Gal(b1-3)GalNAc
Method in brief: as §1

[3] = target: Fuc(a1-2)Gal(b1-3)GalNAc(a1-3)[Fuc(a1-2)]Gal(b1-4)Glc
Method in brief: as §1

[4] = target: Fuc(a1-2)Gal(b1-3)GalNAc(a1-3)[Fuc(a1-2)]Gal(b1-4)GlcNAc
Method in brief: as §1

[5] = target: Fuc(a1-2)Gal(b1-3)GalNAc(b1-3)Gal
Method in brief: as §1

[6] = target: Fuc(a1-2)Gal(b1-3)GalNAc(b1-3)Gal(a1-4)Gal(b1-4)Glc
Method in brief: as §1

[7] = target: Fuc(a1-2)Gal(b1-3)GalNAc(b1-4)[Neu5Ac(a2-3)]Gal(b1-4)Glc
Method in brief: as §1

[8] = target: Fuc(a1-2)Gal(b1-3)GlcNAc
Method in brief: as §1

[9] = target: Fuc(a1-2)Gal(b1-3)GlcNAc(b1-2)Man(a1-3)[Fuc(a1-2)Gal(b1-3)GlcNAc(b1-2)Man(a1-6)]Man(b1-4)GlcNAc(b1-4)GlcNAc
Method in brief: as §1

[10] = target: Fuc(a1-2)Gal(b1-3)GlcNAc(b1-2)Man(a1-3)[Fuc(a1-2)Gal(b1-3)GlcNAc(b1-2)Man(a1-6)]Man(b1-4)GlcNAc(b1-4)[Fuc(a1-6)]GlcNAc
Method in brief: as §1

[11] = target: Fuc(a1-2)Gal(b1-3)GlcNAc(b1-3)Gal(b1-4)Glc
Method in brief: as §1

[12] = target: Fuc(a1-2)Gal(b1-3)GlcNAc(b1-3)GalNAc
Method in brief: as §1

[13] = target: Fuc(a1-2)Gal(b1-3)GlcNAc(b1-3)[Fuc(a1-2)Gal(b1-3)GlcNAc(b1-6)]GalNAc
Method in brief: as §1

[14] = target: Fuc(a1-2)Gal(b1-3)GlcNAc(b1-3)[Gal(b1-4)GlcNAc(b1-6)]Gal(b1-4)Glc
Method in brief: as §1

[15] = target: Fuc(a1-2)Gal(b1-3)GlcNAc(b1-3)[Neu5Ac(a2-6)Gal(b1-4)GlcNAc(b1-6)]Gal(b1-4)Glc
Method in brief: as §1

[16] = target: Fuc(a1-2)Gal(b1-3)GlcNAc6S
Method in brief: as §1

[17] = target: Fuc(a1-2)Gal(b1-3)[Fuc(a1-4)]GlcNAc
Method in brief: as §1

[18] = target: Fuc(a1-2)Gal(b1-3)[Fuc(a1-4)]GlcNAc(b1-2)Man(a1-3)[Fuc(a1-2)Gal(b1-3)[Fuc(a1-4)]GlcNAc(b1-2)Man(a1-3)]Man(b1-4)GlcNAc(b1-4)GlcNAc
Method in brief: as §1

[19] = target: Fuc(a1-2)Gal(b1-3)[Fuc(a1-4)]GlcNAc(b1-2)Man(a1-3)[Fuc(a1-2)Gal(b1-3)[Fuc(a1-4)]GlcNAc(b1-2)Man(a1-6)]Man(b1-4)GlcNAc(b1-4)[Fuc(a1-6)]GlcNAc(b1-4)[Fuc(a1-6)]GlcNAc
Method in brief: as §1

[20] = target: Fuc(a1-2)Gal(b1-3)[Fuc(a1-4)]GlcNAc(b1-3)[Fuc(a1-3)[Gal(b1-4)]GlcNAc(b1-6)]Gal(b1-4)Glc
Method in brief: as §1

[21] = target: Fuc(a1-2)Gal(b1-3)[Fuc(a1-4)]GlcNAc(b1-3)[Gal(b1-4)GlcNAc(b1-6)]Gal(b1-4)Glc
Method in brief: as §1

[22] = target: Fuc(a1-2)Gal(b1-4)Glc
Method in brief: as §1

[23] = target: Fuc(a1-2)Gal(b1-4)Glc6S
Method in brief: as §1

[24] = target: Fuc(a1-2)Gal(b1-4)GlcNAc
Method in brief: as §1

[25] = target: Fuc(a1-2)Gal(b1-4)GlcNAc(b1-2)Man
Method in brief: as §1

[26] = target: Fuc(a1-2)Gal(b1-4)GlcNAc(b1-2)Man(a1-3)[Fuc(a1-2)Gal(b1-4)GlcNAc(b1-2)Man(a1-6)]Man(b1-4)GlcNAc(b1-4)GlcNAc
Method in brief: as §1

[27] = target: Fuc(a1-2)Gal(b1-4)GlcNAc(b1-2)Man(a1-3)[Fuc(a1-2)Gal(b1-4)GlcNAc(b1-2)Man(a1-6)]Man(b1-4)GlcNAc(b1-4)[Fuc(a1-6)]GlcNAc
Method in brief: as §1

[28] = target: Fuc(a1-2)Gal(b1-4)GlcNAc(b1-2)[Fuc(a1-2)Gal(b1-4)GlcNAc(b1-4)]Man(a1-3)[Fuc(a1-2)Gal(b1-4)GlcNAc(b1-2)Man(a1-6)]Man(b1-4)GlcNAc(b1-4)GlcNAc
Method in brief: as §1

[29] = target: Fuc(a1-2)Gal(b1-4)GlcNAc(b1-3)Gal(b1-4)GlcNAc
Method in brief: as §1

[30] = target: Fuc(a1-2)Gal(b1-4)GlcNAc(b1-3)Gal(b1-4)GlcNAc(b1-2)Man(a1-3)[Fuc(a1-2)Gal(b1-4)GlcNAc(b1-3)Gal(b1-4)GlcNAc(b1-2)Man(a1-6)]Man(b1-4)GlcNAc(b1-4)GlcNAc
Method in brief: as §1

B1: CaSRK1 (Capsicum annuum) (protein)
chain: MALCKIFPFAFILLSCSCYLISGQRFDYPTANLSTTWINSVSAPHSIDYTDGSRIRAILLRGTFGPRYACGFYCNGNCESYLFAIFIVQTNSASQITSPAIGFPQVVWSANRNNPVKINSTLQLTAEGDLVLRDADGTLAWSTNTAGKSVAGLSLTDEGNLALFDSKNATVWQSFDHPTDALVPGQKLVPGMKLTASVSRTNWTAGGLFALSAIDNGLVAFVESNPPQKYFEASVGGSNTSGGSNYVKYLNGSLTLFTHSADTTELILISITPASSAQYMKLESNGHLKVYEWTSRGWREVDDLLTGFRGECNYPTVCGRYGICTMGQCSCPTSSSSRTYFRPIDVRRPSLGCSEVTKLTCQNTKKHSPLEVEDVDYFAFKAGISDTDLNTCKRACLEKCSCKAAFFRSGLNSSRTRGDCYLPTEIFSIMNNEKDRTRYDSVAFIKVQV
- glycan array binding signal (z-score) [1]: 0.592
- glycan array binding signal (z-score) [2]: -0.449
- glycan array binding signal (z-score) [3]: -0.458
- glycan array binding signal (z-score) [4]: -0.12
- glycan array binding signal (z-score) [5]: 1.02
- glycan array binding signal (z-score) [6]: -0.277
- glycan array binding signal (z-score) [7]: -0.483
- glycan array binding signal (z-score) [8]: -0.442
- glycan array binding signal (z-score) [9]: -0.192
- glycan array binding signal (z-score) [10]: 0.729
- glycan array binding signal (z-score) [11]: -0.512
- glycan array binding signal (z-score) [12]: -0.456
- glycan array binding signal (z-score) [13]: -0.29
- glycan array binding signal (z-score) [14]: -0.073
- glycan array binding signal (z-score) [15]: -0.238
- glycan array binding signal (z-score) [16]: 0.428
- glycan array binding signal (z-score) [17]: -0.523
- glycan array binding signal (z-score) [18]: 1.12
- glycan array binding signal (z-score) [19]: 0.016
- glycan array binding signal (z-score) [20]: -0.453
- glycan array binding signal (z-score) [21]: -0.1
- glycan array binding signal (z-score) [22]: -0.142
- glycan array binding signal (z-score) [23]: 0.141
- glycan array binding signal (z-score) [24]: -0.248
- glycan array binding signal (z-score) [25]: 0.3
- glycan array binding signal (z-score) [26]: -0.059
- glycan array binding signal (z-score) [27]: 0.053
- glycan array binding signal (z-score) [28]: -0.164
- glycan array binding signal (z-score) [29]: -0.389
- glycan array binding signal (z-score) [30]: 0.044
